# The other results are listed elsewhere or left out. Many values rest on one well or one pass, so single values are uncertain.
# Tests used:
# Experiment in all cases: cell count relative to DMSO control; melanoma cells; higher = more viable cells
# Conditions in all cases: library dose: low library concentration; 72 h
# MZ2-MEL = tested on: MZ2-MEL
# MeWo = tested on: MeWo
# RPMI7951 = tested on: RPMI7951
# RVH-421 = tested on: RVH-421
# SkMel28 = tested on: SkMel28
# SkMel2 = tested on: SkMel2
# SkMel30 = tested on: SkMel30
# UACC62 = tested on: UACC62
# 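Further: cell number obtained by counting DAPI-stained nuclei in high-throughput microscope images with image analysis software, screen run in 1,536-well plates.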
Structure (SMILES),cell count (MZ2-MEL) [%],cell count (MeWo) [%],cell count (RPMI7951) [%],cell count (RVH-421) [%],cell count (SkMel28) [%],cell count (SkMel2) [%],cell count (SkMel30) [%],cell count (UACC62) [%]
"COc1cc([C@@H]2c3cc4c(cc3[C@@H](O[C@@H]3O[C@@H]5CO[C@@H](C)O[C@H]5[C@H](O)[C@H]3O)[C@H]3COC(=O)[C@H]23)OCO4)cc(OC)c1O [etoposide] + OCc1c[nH]c2ccccc12 [Indole-3-carbinol] (first compound 0.02 µM, partner dose 0.8 µM)",90.9,102,108,97.2,111,97.1,109,68.8
"Cn1cnc2c(F)c(Nc3ccc(Br)cc3Cl)c(C(=O)NOCCO)cc21 [selumetinib] + C#Cc1cccc(Nc2ncnc3cc(OCCOC)c(OCCOC)cc23)c1 [erlotinib] (first compound 0.015 µM, partner dose 0.8 µM)",97.3,86.3,97.8,93.4,65.3,76.5,55.2,73
"CCN(CC)CCNC(=O)c1c(C)[nH]c(/C=C2\C(=O)Nc3ccc(F)cc32)c1C [sunitinib] + Cn1c(=O)n(-c2ccc(C(C)(C)C#N)cc2)c2c3cc(-c4cnc5ccccc5c4)ccc3ncc21 [NVP-BEZ235] (first compound 0.4 µM, partner dose 0.004 µM)",109,61.2,102,88.8,60.2,104,60.7,61.8
"CCN(CC)CCNC(=O)c1c(C)[nH]c(/C=C2\C(=O)Nc3ccc(F)cc32)c1C [sunitinib] + C=CCNC1=C2C[C@@H](C)C[C@H](OC)[C@H](O)[C@@H](C)/C=C(\C)[C@H](OC(N)=O)[C@@H](OC)/C=C\C=C(/C)C(=O)NC(=CC1=O)C2=O [Tanespimycin] (first compound 0.4 µM, partner dose 0.002 µM)",121,69.9,91.8,115,107,110,67.8,87.7
"Cn1cnc2c(F)c(Nc3ccc(Br)cc3Cl)c(C(=O)NOCCO)cc21 [selumetinib] + Nc1ncn([C@H]2C[C@H](O)[C@@H](CO)O2)c(=O)n1 [decitabine] (first compound 0.015 µM, partner dose 0.1 µM)",81.6,89.1,99.2,71.7,85.1,69.2,77.5,52.9
"C[C@]1(O)C[C@@H](c2nc(-c3ccc4ccc(-c5ccccc5)nc4c3)c3c(N)nccn32)C1 + Cn1c(=O)n(-c2ccc(C(C)(C)C#N)cc2)c2c3cc(-c4cnc5ccccc5c4)ccc3ncc21 [NVP-BEZ235] (first compound 0.4 µM, partner dose 0.004 µM)",91.2,68.7,82.7,107,72.4,71.2,56.8,66
"CCN(CC)CCNC(=O)c1c(C)[nH]c(/C=C2\C(=O)Nc3ccc(F)cc32)c1C [sunitinib] + O=C(O)[C@@H]1[O][Sb](=[O])([O][Sb]2(=[O])[O][C@H]([C@H](O)CO)[C@H](O)[C@H](C(=O)O)[O]2)[O][C@H]([C@H](O)CO)[C@@H]1O [stibogluconate] (first compound 0.4 µM, partner dose 2 µM)",100,102,125,118,85.6,116,114,97.2
"CCN(CC)CCNC(=O)c1c(C)[nH]c(/C=C2\C(=O)Nc3ccc(F)cc32)c1C [sunitinib] + Nc1cccc2c1CN(C1CCC(=O)NC1=O)C2=O [lenalidomide] (first compound 0.4 µM, partner dose 1 µM)",104,78.9,98.1,104,95.7,113,84.7,90.6
"Cn1cnc2c(F)c(Nc3ccc(Br)cc3Cl)c(C(=O)NOCCO)cc21 [selumetinib] + O=C(O)[C@@H]1[O][Sb](=[O])([O][Sb]2(=[O])[O][C@H]([C@H](O)CO)[C@H](O)[C@H](C(=O)O)[O]2)[O][C@H]([C@H](O)CO)[C@@H]1O [stibogluconate] (first compound 0.015 µM, partner dose 2 µM)",84.1,81.9,93.8,84.9,86.2,68.1,58.1,69.5
"COc1cc([C@@H]2c3cc4c(cc3[C@@H](O[C@@H]3O[C@@H]5CO[C@@H](C)O[C@H]5[C@H](O)[C@H]3O)[C@H]3COC(=O)[C@H]23)OCO4)cc(OC)c1O [etoposide] + O=c1[nH]nc(Sc2ncc([N+](=O)[O-])s2)n1-c1ccc2c(c1)OCCO2 [BI78D3] (first compound 0.02 µM, partner dose 0.2 µM)",91.1,86.3,86.8,108,77.5,90.3,101,85.1
"COc1cc([C@@H]2c3cc4c(cc3[C@@H](O[C@@H]3O[C@@H]5CO[C@@H](C)O[C@H]5[C@H](O)[C@H]3O)[C@H]3COC(=O)[C@H]23)OCO4)cc(OC)c1O [etoposide] + CC(=O)O[C@@]12CO[C@@H]1C[C@H](O)[C@@]1(C)C(=O)[C@H](O)C3=C(C)[C@@H](OC(=O)[C@H](O)[C@@H](NC(=O)OC(C)(C)C)c4ccccc4)C[C@@](O)([C@@H](OC(=O)c4ccccc4)[C@H]21)C3(C)C [Docetaxel] (first compound 0.02 µM, partner dose 0.0001 µM)",56.7,59.2,56.4,51.2,54.8,49.4,41,45.2
"CCN(CC)CCNC(=O)c1c(C)[nH]c(/C=C2\C(=O)Nc3ccc(F)cc32)c1C [sunitinib] + Cn1nnc2c(C(N)=O)ncn2c1=O [temozolomide] (first compound 0.4 µM, partner dose 2 µM)",102,91,120,135,103,111,68.4,70
"CCN(CC)CCNC(=O)c1c(C)[nH]c(/C=C2\C(=O)Nc3ccc(F)cc32)c1C [sunitinib] + COCC[n+]1c2c(n(Cc3cnccn3)c1C)C(=O)c1ccccc1C2=O [YM155] (first compound 0.4 µM, partner dose 0.0004 µM)",74.8,76,93.9,102,91.3,99.7,82.3,80.1
"COc1cc([C@@H]2c3cc4c(cc3[C@@H](O[C@@H]3O[C@@H]5CO[C@@H](C)O[C@H]5[C@H](O)[C@H]3O)[C@H]3COC(=O)[C@H]23)OCO4)cc(OC)c1O [etoposide] + C[C@]1(O)C[C@@H](c2nc(-c3ccc4ccc(-c5ccccc5)nc4c3)c3c(N)nccn32)C1 [OSI906] (first compound 0.02 µM, partner dose 0.4 µM)",85.4,89.3,87.7,93.2,81.5,79.7,77.3,82.7
"Cn1cnc2c(F)c(Nc3ccc(Br)cc3Cl)c(C(=O)NOCCO)cc21 [selumetinib] + CS(=O)(=O)c1ccc(C(=O)Nc2ccc(Cl)c(-c3ccccn3)c2)c(Cl)c1 [vismodegib] (first compound 0.015 µM, partner dose 1 µM)",91.8,83.5,96.5,108,95.6,89.2,82.3,81.7
"CCN(CC)CCNC(=O)c1c(C)[nH]c(/C=C2\C(=O)Nc3ccc(F)cc32)c1C [sunitinib] + CCCS(=O)(=O)Nc1ccc(F)c(C(=O)c2c[nH]c3ncc(Cl)cc23)c1F [PLX4720] (first compound 0.4 µM, partner dose 0.08 µM)",88.2,83.6,98.6,82.5,83.8,112,92.5,53.5
"C[C@]1(O)C[C@@H](c2nc(-c3ccc4ccc(-c5ccccc5)nc4c3)c3c(N)nccn32)C1 + Cc1nc(Nc2ncc(C(=O)Nc3c(C)cccc3Cl)s2)cc(N2CCN(CCO)CC2)n1 [dasatanib] (first compound 0.4 µM, partner dose 0.004 µM)",70.4,84.5,82.7,122,78.8,76.3,72.9,71
"Cn1cnc2c(F)c(Nc3ccc(Br)cc3Cl)c(C(=O)NOCCO)cc21 [selumetinib] + Cn1nnc2c(C(N)=O)ncn2c1=O [temozolomide] (first compound 0.015 µM, partner dose 2 µM)",83.4,100,98,82.6,84.4,65.1,59.8,65.1
"C[C@]1(O)C[C@@H](c2nc(-c3ccc4ccc(-c5ccccc5)nc4c3)c3c(N)nccn32)C1 + COc1ccc(Cl)c(Nc2nc3ccccc3nc2NS(=O)(=O)c2cccc(NC(=O)C(C)(C)N)c2)c1 [XL147] (first compound 0.4 µM, partner dose 0.8 µM)",92,94.7,107,99.9,95.7,96.8,74.9,101
